Laboratory results: PubChem BioAssay AID720709 (National Center for Advancing Translational Sciences (NCATS), 2013)
Screen size: about 360,000 compounds; about 520 (0.14%) were called active. The inconclusive results got no clear call from the source; some entries with a clear call stand among them for comparison. Calls follow the shape of the dose curve; as a rule, active = well fitted inhibition curve with a large enough effect; inconclusive = small, poorly fitted or top-dose-only effect; inactive = no such curve, though single readings can be large or run the other way. Potencies of inconclusive entries are left out as doubtful fits.

Biological target: Rap guanine nucleotide exchange factor 3 (Homo sapiens) (UniProt O95398)
Experiment: qHTS for Antagonist of cAMP-regulated guanine nucleotide exchange factor 3 (EPAC1): primary screen; also: nearly all actives have a fitted effect of over 50% in size;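 as to activity change, negative = inhibition: plate controls were vehicle for no effect and positive control for full effect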
Conditions: EPAC1 GEF assay, Rap1b-BODIPY-GDP exchange fluorescence; activity change, negative = inhibition: at 115 µM (top of the series)
Potency is read from the fitted curve at half-maximal effect; tags tell the direction and shape of the fitted curve.

Sequence of UniProt O95398 (O95398 whole entry, looked up): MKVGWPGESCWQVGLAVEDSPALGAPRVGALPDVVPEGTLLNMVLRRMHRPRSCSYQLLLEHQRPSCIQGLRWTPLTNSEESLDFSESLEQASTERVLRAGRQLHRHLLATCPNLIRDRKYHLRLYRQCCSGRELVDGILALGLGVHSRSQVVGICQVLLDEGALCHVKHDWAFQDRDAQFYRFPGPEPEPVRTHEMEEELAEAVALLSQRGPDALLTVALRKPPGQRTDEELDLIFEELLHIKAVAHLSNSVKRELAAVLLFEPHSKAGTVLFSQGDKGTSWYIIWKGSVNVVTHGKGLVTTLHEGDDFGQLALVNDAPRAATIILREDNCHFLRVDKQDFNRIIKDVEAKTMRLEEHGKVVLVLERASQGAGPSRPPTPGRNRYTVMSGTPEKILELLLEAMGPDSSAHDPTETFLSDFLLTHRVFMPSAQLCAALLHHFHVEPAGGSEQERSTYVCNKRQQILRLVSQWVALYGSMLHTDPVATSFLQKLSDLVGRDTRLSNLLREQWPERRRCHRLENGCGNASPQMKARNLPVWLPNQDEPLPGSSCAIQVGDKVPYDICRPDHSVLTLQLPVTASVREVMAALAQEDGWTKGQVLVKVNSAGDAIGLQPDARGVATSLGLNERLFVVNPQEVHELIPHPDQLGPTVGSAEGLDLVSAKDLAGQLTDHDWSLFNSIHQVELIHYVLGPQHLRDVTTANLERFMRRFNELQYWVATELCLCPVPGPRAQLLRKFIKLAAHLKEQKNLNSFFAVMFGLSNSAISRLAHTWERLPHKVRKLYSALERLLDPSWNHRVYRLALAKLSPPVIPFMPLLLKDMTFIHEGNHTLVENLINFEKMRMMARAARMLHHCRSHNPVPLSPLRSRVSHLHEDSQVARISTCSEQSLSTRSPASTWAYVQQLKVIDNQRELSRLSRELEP

Structure (SMILES) | Potency | activity change, negative = inhibition
CC(=O)Nc1ccc(N(C(=O)Cc2c[nH]c3ccccc23)C(C(=O)NC2CCCCC2)c2ccco2)cc1 (stereo not drawn) | inconclusive [inhibitor, single point] | 
O=C(OCc1ccccc1)N1CCC2CC1c1ccc(/C=C/CCCCl)cc12 (stereo not drawn) | inconclusive [inhibitor, partial curve, poor fit] | 
COc1ccc(OC)c(-c2cc(C(=O)Nc3ccc(F)cc3F)no2)c1 | inconclusive [inhibitor, full curve, poor fit] | 
Cc1ccccc1NC(=O)COC(=O)c1ccc(CSc2ccc(Cl)cc2)cc1 |  | inactive: -11.6%
CCOc1ccc(C(C(=O)NC2CCCC2)N(C(=O)c2snc(C(N)=O)c2N)C2CCCC2)cc1 (stereo not drawn) | inconclusive [inhibitor, partial curve, poor fit] | 
Cc1cc(Br)ccc1NC(=O)CCCOc1cc(=O)n(C)c2ccccc12 | inconclusive [inhibitor, full curve, poor fit] | 
Cn1cc(C(=O)C(=O)NC2CC2)c2ccccc21 | inconclusive [inhibitor, partial curve] | 
Cc1cc(C)c(NC(=O)Cn2ncc3ccccc32)c(C)c1 | inconclusive [inhibitor, partial curve] | 
CCOc1ccccc1NC(=O)c1cccc(NC(=O)c2ccco2)c1 | inconclusive [inhibitor, single point] | 
CCN1C(=O)[C@@H]2[C@@H]3CN(S(=O)(=O)c4ccc(C)cc4)[C@@H](c4ccccc4Cl)[C@@H]3C(=O)C[C@@H]2C1=O | inconclusive [inhibitor, single point] | 
CCn1c2ccccc2c2cc(NC(=O)c3ccc(=O)oc3)ccc21 |  | inactive: 11.6%
Cc1cc2cc(CNC(=S)Nc3ccc(OC(F)(F)F)cc3)ccc2n1C | inconclusive [inhibitor, full curve, poor fit] | 
Cc1cc2nc(-c3ccc(SCc4ccccn4)nc3)[nH]c2cc1C | inconclusive [inhibitor, partial curve] | 
Cc1oc(-c2ccccc2)nc1CS(=O)CC(=O)NC1CCCC1 (stereo not drawn) |  | inactive: -12.9%
COc1ccc(S(=O)(=O)/N=C2\C=C(Nc3ccc(O)cc3)C(=O)c3ccccc32)cc1 | inconclusive [inhibitor, single point] | 
Oc1ccc(-c2csc(Nc3ncccn3)n2)cc1 |  | inactive: -5.69%
CCOc1ccc(N(C(=O)c2snc(C(N)=O)c2N)C(C(=O)NC2CCCC2)C(C)C)cc1 (stereo not drawn) |  | inactive: -19.5%
c1ccc(Nc2nnc(SCc3cccc4ccccc34)s2)cc1 |  | inactive: -11%
